Source: publication PMC9911399, “Two distinct binding modes provide the RNA-binding protein RbFox with extraordinary sequence specificity”
Substitutions are numbered along the chain they refer to; changes in the protein carry UniProt numbers. Some of the results follow.

B1: CGGACAA (DNA:RNA)
RNA: GGGAGACCGGAAUUCAGAUUGUCCCGGACAAUUAAAUCCCGUCGUAGCCACCA
DNA 1: CAATCTGAATTCCGGTCTCCC
DNA 2: TGGTGGCTACGACGGGATT
B2: UGGGCUG (DNA:RNA)
RNA: B1 RNA with C25U, A28G, A30U, A31G
DNA 1: CAATCTGAATTCCGGTCTCCC
DNA 2: TGGTGGCTACGACGGGATT
B3: UACUGGU (DNA:RNA)
RNA: GGGAGACCGGAAUUCAGAUUGUCCUACUGGUUUAAAUCCCGUCGUAGCCACCA
DNA 1: CAATCTGAATTCCGGTCTCCC
DNA 2: TGGTGGCTACGACGGGATT
B4: GAUGAAG (DNA:RNA)
RNA: B1 RNA with C25G, G26A, G27U, A28G, C29A, A31G
DNA 1: CAATCTGAATTCCGGTCTCCC
DNA 2: TGGTGGCTACGACGGGATT
B5: CCCUACG (DNA:RNA)
RNA: B3 RNA with U25C, A26C, G29A, G30C, U31G
DNA 1: CAATCTGAATTCCGGTCTCCC
DNA 2: TGGTGGCTACGACGGGATT
B6: GGCAACG (DNA:RNA)
RNA: B1 RNA with C25G, G27C, C29A, A30C, A31G
DNA 1: CAATCTGAATTCCGGTCTCCC
DNA 2: TGGTGGCTACGACGGGATT
B7: GUAUACU (DNA:RNA)
RNA: B3 RNA with U25G, A26U, C27A, G29A, G30C
DNA 1: CAATCTGAATTCCGGTCTCCC
DNA 2: TGGTGGCTACGACGGGATT
B8: AAAUUUC (DNA:RNA)
RNA: B3 RNA with U25A, C27A, G29U, G30U, U31C
DNA 1: CAATCTGAATTCCGGTCTCCC
DNA 2: TGGTGGCTACGACGGGATT
B9: GCGCGUU (DNA:RNA)
RNA: B3 RNA with U25G, A26C, C27G, U28C, G30U
DNA 1: CAATCTGAATTCCGGTCTCCC
DNA 2: TGGTGGCTACGACGGGATT
B10: AGUAAAU (DNA:RNA)
RNA: B1 RNA with C25A, G27U, C29A, A31U
DNA 1: CAATCTGAATTCCGGTCTCCC
DNA 2: TGGTGGCTACGACGGGATT
B11: UUACCAA (DNA:RNA)
RNA: B1 RNA with C25U, G26U, G27A, A28C
DNA 1: CAATCTGAATTCCGGTCTCCC
DNA 2: TGGTGGCTACGACGGGATT
B12: UAUGUUG (DNA:RNA)
RNA: B3 RNA with C27U, U28G, G29U, G30U, U31G
DNA 1: CAATCTGAATTCCGGTCTCCC
DNA 2: TGGTGGCTACGACGGGATT
B13: CAUGCCU (DNA:RNA)
RNA: B1 RNA with G26A, G27U, A28G, A30C, A31U
DNA 1: CAATCTGAATTCCGGTCTCCC
DNA 2: TGGTGGCTACGACGGGATT
B14: CAGGAGU (DNA:RNA)
RNA: B3 RNA with U25C, C27G, U28G, G29A
DNA 1: CAATCTGAATTCCGGTCTCCC
DNA 2: TGGTGGCTACGACGGGATT
B15: CACUUAU (DNA:RNA)
RNA: B3 RNA with U25C, G29U, G30A
DNA 1: CAATCTGAATTCCGGTCTCCC
DNA 2: TGGTGGCTACGACGGGATT
B16: AUGCCCC (DNA:RNA)
RNA: B1 RNA with C25A, G26U, A28C, A30C, A31C
DNA 1: CAATCTGAATTCCGGTCTCCC
DNA 2: TGGTGGCTACGACGGGATT
B17: AGGCUAU (DNA:RNA)
RNA: B1 RNA with C25A, A28C, C29U, A31U
DNA 1: CAATCTGAATTCCGGTCTCCC
DNA 2: TGGTGGCTACGACGGGATT
B18: AGGGACG (DNA:RNA)
RNA: B1 RNA with C25A, A28G, C29A, A30C, A31G
DNA 1: CAATCTGAATTCCGGTCTCCC
DNA 2: TGGTGGCTACGACGGGATT
B19: GUCCACC (DNA:RNA)
RNA: B3 RNA with U25G, A26U, U28C, G29A, G30C, U31C
DNA 1: CAATCTGAATTCCGGTCTCCC
DNA 2: TGGTGGCTACGACGGGATT
B20: CCCCGAU (DNA:RNA)
RNA: B3 RNA with U25C, A26C, U28C, G30A
DNA 1: CAATCTGAATTCCGGTCTCCC
DNA 2: TGGTGGCTACGACGGGATT

Biological target: T1, RBFOX1 RRM (Homo sapiens, UniProt Q9NWB1 109-208)
T1 sequence: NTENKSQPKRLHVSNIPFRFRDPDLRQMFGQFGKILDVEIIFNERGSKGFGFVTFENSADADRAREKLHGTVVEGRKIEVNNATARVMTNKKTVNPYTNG
Test: EMSA; HiTS-Eq, 1 nM pool, 10 min; buffer printed only for the single-RNA assays: 10 mM Tris pH 7.5, 150 mM NaCl, 3.4 mM EDTA, 0.001% NP-40, 30 C
Conditions: tags: His6 N-terminal (pET28a); label: 5' 32P
Method in brief: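 Purified RbFox RRM (wild type or mutant) was equilibrated for 10 min in 50 µL with 1 nM of a 5′-radiolabelled pool of RNA with 7 randomized nucleotides, its flanks annealed to DNA oligonucleotides, across increasing protein concentrations. Free RNA was separated by 8% native PAGE, excised, reverse-transcribed, PCR-barcoded and sequenced on an Illumina HiSeq 2500. Relative association constants came from read-count changes of each variant against the control reaction, normalised to the cognate motif.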

Binder	binding signal
B1	0.0118 KA relative to UGCAUGU
B2	0.039 KA relative to UGCAUGU
B3	0.0165 KA relative to UGCAUGU
B4	0.0183 KA relative to UGCAUGU
B5	0.00111 KA relative to UGCAUGU
B6	0.0109 KA relative to UGCAUGU
B7	0.00489 KA relative to UGCAUGU
B8	0.00597 KA relative to UGCAUGU
B9	0.0168 KA relative to UGCAUGU
B10	0.00281 KA relative to UGCAUGU
B11	0.00232 KA relative to UGCAUGU
B12	0.0259 KA relative to UGCAUGU
B13	0.00956 KA relative to UGCAUGU
B14	0.0128 KA relative to UGCAUGU
B15	0.00212 KA relative to UGCAUGU
B16	0.00742 KA relative to UGCAUGU
B17	0.00892 KA relative to UGCAUGU
B18	0.0145 KA relative to UGCAUGU
B19	0.00352 KA relative to UGCAUGU
B20	0.005 KA relative to UGCAUGU
